# The list shows a part of the results. The full chains were built here from the parent and the listed change. Inactive controls read about 0.05.
# B1: TEV protease; numbered along this chain (parent)
# chain: MGESLFKGPRDYNPISSSICHLTNESDGHTTSLYGIGFGPFIITNKHLFRRNNGTLVVQSLHGVFKVKDTTTLQQHLVDGRDMIIIRMPKDFPPFPQKLKFREPQREERICLVTTNFQTKSMSSMVSDTSCTFPSGDGIFWKHWIQTKDGQCGSPLVSTRDGFIVGIHSASNFTNTNNYFTSVPKNFMELLTNQEAQQWVSGWRLNADSVLWGGHKVFMVKPEEPFQPVKEATQL
# Variants of: B1
# Experiment: raw area under fraction-flipped curve 0-4 h after induction (AUC4h, not background-subtracted), DNA-recorder readout of cleavage of the substrate (dimensionless); higher = more cleavage of the substrate by the protease variant
# Conditions: temperature: 34 °C; time window: 0-4 h after rhamnose induction
# Procedure: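 In vivo DNA recorder in E. coli TOP10(DE3) ΔrhaA at 34 °C. Each TEVp single-site mutant (parent TEVp 0) is paired with a single-site variant of the 7-mer TEVs (canonical ENLYFQ|S). The substrate sits between flexible linkers in a Bxb1-sfGFP-TEVs-SsrA fusion, so cleavage stabilises Bxb1 and speeds flipping of a recombination array, read by NGS. The value is the raw area under the fraction-flipped curve over 0-4 h after rhamnose induction (AUC4h), with ≥20 reads per time point. It is not background-subtracted; inactive controls average about 0.047.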
# 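Note: Bxb1 expression induced with 0.2% (w/v) L-rhamnose at OD600 near 0.5, cultures sampled hourly, flipped fraction per protease–substrate barcode pair counted by paired-end Illumina sequencing.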
Variant,area with substrate ENLYFAS,area with substrate ENLYFCS,area with substrate ENLYFES,area with substrate ENLYFFS,area with substrate ENLYFIS,area with substrate ENLYFKS,area with substrate ENLYFLS,area with substrate ENLYFNS,area with substrate ENLYFPS,area with substrate ENLYFRS,area with substrate ENLYFVS,area with substrate ENLYFWS,area with substrate ENLYFYS,area with substrate ENLYFDS,area with substrate ENLYFMS,area with substrate ENLYFSS,area with substrate ENLYFTS,area with substrate ENLYFGS,area with substrate ENLYFHS
L156D,0.0462,0.0512,0.0616,0.0585,0.0466,0.0574,0.0553,0.0586,0.0427,0.05,0.0404,0.0646,0.0661,,,,,,
L156I,0.0413,,0.0448,0.0627,0.0544,0.0616,,0.0665,0.0569,0.0534,0.0881,0.0537,,0.0539,0.0601,0.0446,0.0617,,
L156M,0.0638,0.0592,0.073,0.0764,0.0614,,,,0.0663,0.0679,,0.0634,,0.0637,0.0436,0.0571,0.0582,0.075,0.0659
T159L,0.051,0.0542,0.0669,0.0782,0.056,0.0593,0.0181,0.0755,0.068,0.0384,,0.0713,0.0527,,0.0575,,0.0554,0.0574,
R160H,0.0498,,,0.072,0.0497,0.0814,,,0.0615,,,0.0498,,0.063,0.065,,,,0.0574
D161T,0.0571,0.0543,0.0654,0.0765,0.0635,0.0495,,0.0751,0.0515,0.0507,0.048,0.0693,0.0593,0.0604,0.06,,0.0635,,0.055
I164P,0.0362,0.0461,0.0534,0.0626,0.05,0.0549,,0.0568,0.045,0.041,,0.0534,0.0521,0.0523,0.0515,0.0371,0.0527,0.0476,

# Reference: the supplement of paper PMC12217912
